In paper PMC9911399, “Two distinct binding modes provide the RNA-binding protein RbFox with extraordinary sequence specificity” one finds binding signal data, which are given here for 20 molecules.

Changes are numbered by the printed parent chain; changes in the protein carry UniProt numbers. The list shows a part of the results.

T1: RBFOX1 RRM RbFoxmut (Fox-RRM*) (Homo sapiens, UniProt Q9NWB1 109-208, R118D;E147R;N151S;E152T)
T1 sequence: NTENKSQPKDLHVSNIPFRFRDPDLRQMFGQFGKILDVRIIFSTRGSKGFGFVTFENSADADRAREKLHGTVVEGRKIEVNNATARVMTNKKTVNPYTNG

B1: CCUGAGU (DNA:RNA)
RNA: GGGAGACCGGAAUUCAGAUUGUCCCCUGAGUUUAAAUCCCGUCGUAGCCACCA
DNA 1: CAATCTGAATTCCGGTCTCCC
DNA 2: TGGTGGCTACGACGGGATT
B2: AAACCUG (DNA:RNA)
RNA: GGGAGACCGGAAUUCAGAUUGUCCAAACCUGUUAAAUCCCGUCGUAGCCACCA
DNA 1: CAATCTGAATTCCGGTCTCCC
DNA 2: TGGTGGCTACGACGGGATT
B3: CAUCUCC (DNA:RNA)
RNA: B2 RNA with A25C, A27U, C29U, U30C, G31C
DNA 1: CAATCTGAATTCCGGTCTCCC
DNA 2: TGGTGGCTACGACGGGATT
B4: UACGCAC (DNA:RNA)
RNA: B2 RNA with A25U, A27C, C28G, U30A, G31C
DNA 1: CAATCTGAATTCCGGTCTCCC
DNA 2: TGGTGGCTACGACGGGATT
B5: CGGAUCG (DNA:RNA)
RNA: B2 RNA with A25C, A26G, A27G, C28A, C29U, U30C
DNA 1: CAATCTGAATTCCGGTCTCCC
DNA 2: TGGTGGCTACGACGGGATT
B6: GUAUUUC (DNA:RNA)
RNA: B2 RNA with A25G, A26U, C28U, C29U, G31C
DNA 1: CAATCTGAATTCCGGTCTCCC
DNA 2: TGGTGGCTACGACGGGATT
B7: AUGACGC (DNA:RNA)
RNA: B2 RNA with A26U, A27G, C28A, U30G, G31C
DNA 1: CAATCTGAATTCCGGTCTCCC
DNA 2: TGGTGGCTACGACGGGATT
B8: UGACAUG (DNA:RNA)
RNA: B2 RNA with A25U, A26G, C29A
DNA 1: CAATCTGAATTCCGGTCTCCC
DNA 2: TGGTGGCTACGACGGGATT
B9: AGAGAGC (DNA:RNA)
RNA: B1 RNA with C25A, C26G, U27A, U31C
DNA 1: CAATCTGAATTCCGGTCTCCC
DNA 2: TGGTGGCTACGACGGGATT
B10: GAGCAGC (DNA:RNA)
RNA: B2 RNA with A25G, A27G, C29A, U30G, G31C
DNA 1: CAATCTGAATTCCGGTCTCCC
DNA 2: TGGTGGCTACGACGGGATT
B11: GGACACG (DNA:RNA)
RNA: B2 RNA with A25G, A26G, C29A, U30C
DNA 1: CAATCTGAATTCCGGTCTCCC
DNA 2: TGGTGGCTACGACGGGATT
B12: ACUUGCU (DNA:RNA)
RNA: B1 RNA with C25A, G28U, A29G, G30C
DNA 1: CAATCTGAATTCCGGTCTCCC
DNA 2: TGGTGGCTACGACGGGATT
B13: UCCCAAC (DNA:RNA)
RNA: B1 RNA with C25U, U27C, G28C, G30A, U31C
DNA 1: CAATCTGAATTCCGGTCTCCC
DNA 2: TGGTGGCTACGACGGGATT
B14: AGAAACG (DNA:RNA)
RNA: B2 RNA with A26G, C28A, C29A, U30C
DNA 1: CAATCTGAATTCCGGTCTCCC
DNA 2: TGGTGGCTACGACGGGATT
B15: CGACUUC (DNA:RNA)
RNA: B2 RNA with A25C, A26G, C29U, G31C
DNA 1: CAATCTGAATTCCGGTCTCCC
DNA 2: TGGTGGCTACGACGGGATT
B16: GAACUAA (DNA:RNA)
RNA: B2 RNA with A25G, C29U, U30A, G31A
DNA 1: CAATCTGAATTCCGGTCTCCC
DNA 2: TGGTGGCTACGACGGGATT
B17: AUCCAUC (DNA:RNA)
RNA: B2 RNA with A26U, A27C, C29A, G31C
DNA 1: CAATCTGAATTCCGGTCTCCC
DNA 2: TGGTGGCTACGACGGGATT
B18: CCAAGCA (DNA:RNA)
RNA: B1 RNA with U27A, G28A, A29G, G30C, U31A
DNA 1: CAATCTGAATTCCGGTCTCCC
DNA 2: TGGTGGCTACGACGGGATT
B19: UAAUUUG (DNA:RNA)
RNA: B2 RNA with A25U, C28U, C29U
DNA 1: CAATCTGAATTCCGGTCTCCC
DNA 2: TGGTGGCTACGACGGGATT
B20: AGGUAUG (DNA:RNA)
RNA: B2 RNA with A26G, A27G, C28U, C29A
DNA 1: CAATCTGAATTCCGGTCTCCC
DNA 2: TGGTGGCTACGACGGGATT

In this assay the target is T1, RBFOX1 RRM RbFoxmut (Fox-RRM*). Kind of assay: EMSA; HiTS-Eq, 1 nM pool, 10 min; buffer printed only for the single-RNA assays: 10 mM Tris pH 7.5, 150 mM NaCl, 3.4 mM EDTA, 0.001% NP-40, 30 C. The conditions noted are these: tags: His6 N-terminal (pET28a); label: 5' 32P. The essentials:
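Purified RbFox RRM (wild type or mutant) was equilibrated for 10 min in 50 µL with 1 nM of a 5′-radiolabelled pool of RNA with 7 randomized nucleotides, its flanks annealed to DNA oligonucleotides, across increasing protein concentrations. Free RNA was separated by 8% native PAGE, excised, reverse-transcribed, PCR-barcoded and sequenced on an Illumina HiSeq 2500. Relative association constants came from read-count changes of each variant against the control reaction, normalised to the cognate motif.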
For B1, the binding signal is 0.0868 KA relative to UGCAUGU.

Consider B2, for which the binding signal is 0.0679 KA relative to UGCAUGU.

For B3, the binding signal is 0.0618 KA relative to UGCAUGU. For B4 the value was 0.0773 KA relative to UGCAUGU.

B5: the binding signal was 0.331 KA relative to UGCAUGU. B6: the binding signal was 0.0956 KA relative to UGCAUGU. On to B7, for which the binding signal was 0.0829 KA relative to UGCAUGU. Take B8: the binding signal was 0.283 KA relative to UGCAUGU.

With B9, the binding signal is 0.0906 KA relative to UGCAUGU. Under B10 stands 0.0998 KA relative to UGCAUGU; under B11, 0.0595 KA relative to UGCAUGU; under B12, 0.113 KA relative to UGCAUGU. In the case of B13, the binding signal was 0.0514 KA relative to UGCAUGU. For B14 the value was 0.11 KA relative to UGCAUGU; for B15, 0.0536 KA relative to UGCAUGU. B16: the binding signal was 0.0987 KA relative to UGCAUGU. Turning to B17, the binding signal is 0.1 KA relative to UGCAUGU. With B18, the binding signal was 0.113 KA relative to UGCAUGU. B19: the binding signal was 0.0593 KA relative to UGCAUGU. Take B20: the binding signal was 1.01 KA relative to UGCAUGU.
